# Laboratory results: PubChem BioAssay AID488969 (Vanderbilt High Throughput Screening Facility, 2010)
# Over roughly 110,000 compounds, “z-score” has its median near -0.1; the highest 2% begin near 2. The list shows a part of the results. Calls of active or inactive are those of the source.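 The calls were made as follows: active = z-score in the third read window above 3 or below -3; inactive = the rest.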
# Biological target: Metabotropic glutamate receptor 8 (Rattus norvegicus) (UniProt P70579)
# UniProt P70579, sequence (P70579 whole entry, looked up): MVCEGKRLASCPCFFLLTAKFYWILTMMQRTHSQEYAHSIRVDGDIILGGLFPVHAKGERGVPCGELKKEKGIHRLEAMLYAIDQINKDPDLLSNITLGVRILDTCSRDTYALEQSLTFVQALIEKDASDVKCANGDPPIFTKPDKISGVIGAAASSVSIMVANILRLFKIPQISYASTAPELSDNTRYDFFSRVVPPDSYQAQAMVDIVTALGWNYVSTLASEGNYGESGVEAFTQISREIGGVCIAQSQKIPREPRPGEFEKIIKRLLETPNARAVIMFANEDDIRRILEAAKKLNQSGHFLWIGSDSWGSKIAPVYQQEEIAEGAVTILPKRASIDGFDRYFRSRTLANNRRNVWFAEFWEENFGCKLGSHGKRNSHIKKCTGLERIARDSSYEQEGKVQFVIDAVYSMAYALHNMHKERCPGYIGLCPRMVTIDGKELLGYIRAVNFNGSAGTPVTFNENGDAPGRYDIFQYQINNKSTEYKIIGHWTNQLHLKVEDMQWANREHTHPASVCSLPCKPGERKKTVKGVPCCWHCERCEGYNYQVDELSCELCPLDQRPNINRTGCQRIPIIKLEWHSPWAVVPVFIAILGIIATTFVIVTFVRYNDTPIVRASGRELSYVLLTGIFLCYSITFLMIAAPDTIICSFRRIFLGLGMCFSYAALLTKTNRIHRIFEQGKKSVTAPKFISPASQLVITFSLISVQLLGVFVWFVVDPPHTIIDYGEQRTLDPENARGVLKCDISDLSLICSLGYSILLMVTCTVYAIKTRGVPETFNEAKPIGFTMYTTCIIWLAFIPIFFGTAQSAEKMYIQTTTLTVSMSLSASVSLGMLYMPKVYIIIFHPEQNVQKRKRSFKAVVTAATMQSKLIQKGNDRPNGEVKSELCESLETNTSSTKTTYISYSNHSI
# Test: mGluR8 Gi/Go-coupled signaling modulation – cell-based, rat, thallium flux, HTS, primary screen (AID 488969)
# Conditions: HEK293 rat mGluR8, GIRK (G protein-gated inwardly rectifying potassium channel) thallium flux, FluoZin2; at 10 µM; stronger effect = higher value; submaximal glutamate (EC20) added with thallium
row,SMILES,z-score
1,CC(C)N(Cc1nc(-c2ccccc2)no1)C(=O)C(C)(C)C,-0.0476
2,COc1ccc(N2CCN(C(=O)c3cn(C)c(=O)c4c3c3ccccc3n4C)CC2)cc1,-0.991
3,COc1ccc(/C(C)=C(\C#N)C(=O)OC(C)C)cc1OC,-1.07
4,O=C(Cn1ccc(C(F)(F)F)n1)N/N=C/c1ccc2c(c1)OCO2,-0.0923
5,CCOC(=O)c1c(NC(=O)CSc2nnc(CNc3ccc(C)cc3C)o2)sc(C)c1C,-0.0907
6,CCOc1cc(/C=C2/NC(=O)N(Cc3ccccc3F)C2=O)ccc1O,-0.759
7,CCOC(=O)CNC(=O)c1ccccc1,-0.434
8,Cc1cc(NC(=O)CCC(=O)N(CC(=O)NC2CCCC2)c2ccccc2)no1,0.384
9,CCOCCCNS(=O)(=O)c1ccc(Br)cc1,0.472
10,Cc1cc(CN2CCOCC2)c(O)c(C2(C)CCCCC2)c1,-0.149
11,O=c1cc(-c2ccc(F)cc2)oc2ccccc12,-0.012
12,CC(/C=C/c1ccccc1)=N\NC(N)=S,-0.00559
13,COc1ccc(C(=O)NCCn2ccc3ccccc32)cc1,-0.162
14,COc1ccccc1N1CCN(c2nc(C)nc3c2oc2ccccc23)CC1,0.614
15,CCC1=C/C(=C\c2ccc3c(c2)OCO3)C(=O)S1,0.0279
16,CCOC(=O)N1CCC(NC(=O)CSCc2nc(-c3cccc(OC)c3)oc2C)CC1,-0.244
17,O=[N+]([O-])c1ccc(-c2ccc(/C=N/c3c(-c4ccco4)nc4ccccn34)o2)c(Cl)c1,-0.142
18,CC(=O)NC1=NN(C(C)=O)C(C)(CS(=O)(=O)c2ccc(Cl)cc2)S1 (configuration not stated),-0.00879
19,CCNc1nc2c(c(=O)[nH]c(=O)n2C)n1CC(C)C,-0.237
20,Cc1ccc(C(=O)O/N=C2\CCS(=O)(=O)c3sccc32)cc1,-0.129
21,COc1ccc2c(c1)C(C)=CC(C)(C)N2C(=O)CNCc1ccc2c(c1)OCO2,-0.359
22,Cn1cc(Br)c(C(=O)N2CCc3ccccc32)n1,-0.257
23,CC(c1ccccc1)N1C(=O)NC(NC(=O)c2cccnc2)(C(F)(F)F)C1=O (configuration not stated),0.102

row,SMILES,z-score
1,COc1ccc(S(=O)(=O)N2c3ccccc3OCC2c2ccccc2)cc1 (configuration not stated),-0.22
2,Cc1ccccc1N1CCN(C(=S)c2ccc([N+](=O)[O-])cc2)CC1,-0.296
3,CCOc1c2ccc(C(=O)NCc3ccc(OC)cc3)cc2nn1CCOC,-0.0472
4,CCOC(=O)c1cnn(-c2ncnc3sc(C)c(C)c23)c1N,0.0294
5,O=P1(Nn2cnnc2)C=C(c2ccccc2)OC(c2ccccc2)=C1,0.0913
6,Cc1cc(OCC(=O)NC(C)(C)C)ccc1Cl,-0.188
7,CCCn1c(=S)[nH]c2cc(OC)c(OC)cc2c1=O,0.397
8,COc1ccc2nc(Nc3sc4c(c3C(N)=O)CCCC4)sc2c1,1.32
9,Cc1cc(=O)[nH]c(N/N=C/c2cccs2)n1,-0.0197
10,O=C(O)CCCC(=O)NCCc1cccc(Cl)c1,-0.179
11,Cc1ccc(NC(=S)N/N=C/c2c(C)nn(-c3ccccc3)c2N2CCCC2)cc1,0.376
12,Cc1cccc(NC(=S)NC(NC(=O)c2ccco2)C(Cl)(Cl)Cl)c1 (configuration not stated),0.384
13,COc1cccc(-n2ccnc2SCC(=O)N2CCCc3ccccc32)c1,0.0268
14,Cc1ccc(OCCn2cc(/C=N/NC(=O)c3ccncc3)c3ccccc32)cc1,-0.0479
15,CC12C(=O)N(c3nccs3)C(=O)C1C1C=CC2C1 (configuration not stated),0.111
16,Cc1ccc(NC(=S)NC(NC(=O)C(C)(C)C)C(Cl)(Cl)Cl)c(C)c1 (configuration not stated),-0.0869
17,COc1cccc(C(=O)NNC(=O)C2CC(C)=C(C)CC2C(=O)O)c1 (configuration not stated),0.0271
18,O=Cc1cc2ccccc2nc1SCc1ccc(Cl)c(Cl)c1,-0.422
19,COc1cc2c(cc1NC(=O)COC(=O)[C@@H](NC(=O)c1ccccc1)C(C)C)oc1ccccc12,-0.115
20,Nc1cc(C2CCCC2)nn1-c1ccccc1,0.933
21,O=C(CSc1nc2ncccc2[nH]1)c1ccc(F)cc1,0.0639
22,Cc1ccc(Nc2cc(C)nn2-c2nc(C)cc(=O)[nH]2)cc1,active: 16.4
23,COc1ccc(-n2cnnc2SCC(=O)Nc2ccc(N3CCOCC3)cc2)cc1,-0.339

row,SMILES,z-score
1,O=C(Nc1ccccc1)C1CCN(C(=O)c2ccccc2)CC1,-0.154
2,Cc1ccc(C(=O)Nc2cccc(-c3cnc4ccccc4n3)c2)cc1,-0.11
3,Cc1ccc2nc(-c3ccc(NC(=O)CCS(=O)(=O)c4ccccc4)cc3)sc2c1,0.109
4,CC(C)NC(=S)N1CCN(C(c2ccccc2)c2ccccc2)CC1,-0.495
5,CC1Nc2nc(NC(=O)C(C)(C)C)[nH]c(=O)c2N(C)C1C (configuration not stated),0.0939
6,CCSc1nnc(NC(=O)C2Cc3ccccc3CN2S(=O)(=O)CC)s1 (configuration not stated),0.295
7,Cc1cc(N2CCOCC2)nc2ccc(NC(=O)CCC(=O)N3CCC(C)CC3)cc12,0.27
8,COc1cc2c(cc1OC)CN(c1nc(CN3CCOCC3)nc3sc4c(c13)CCCC4)CC2,0.0367
9,CC(C)C(=O)Nc1ccc(Sc2ccc(F)cc2)cc1,-0.0187
10,Clc1ccc(Oc2cnc3ccccc3n2)cc1,-0.22
11,COc1ccc2nc(SCC(=O)c3ccco3)[nH]c2c1,0.746
12,Cc1nnc(NC(=O)Nc2cccc(Cl)c2)s1,-0.208
13,CC/C(=N\NC(=S)Nc1cc(C)ccc1C)c1ccc(OC(F)F)cc1,active: 3.47
14,O=C(NC(=S)Nc1c(Cl)ccc2nsnc12)c1ccco1,-0.429
15,CC(C)OCCCNC(=O)CN1CCN(Cc2ccccc2Cl)C1=O,0.117
16,CC(=O)c1ccc(-n2nnnc2SCC(=O)N2CCc3ccccc3C2)cc1,0.3
17,COc1cccc(N(CC(=O)N2CCN(C)CC2)S(=O)(=O)c2ccc(C)cc2)c1,0.199
18,O=C(CCCn1c(=O)c2sccc2n(CC(=O)NCc2ccco2)c1=O)NCc1ccco1,-0.412
19,CCC(=O)Nc1cccc(NC(C)=O)c1,-0.221
20,COC(=O)C1=C(Nc2ccc(C)cc2)C=C(C)C(C(=O)OC)C1c1cccc(OC)c1 (configuration not stated),-0.00294
21,Cc1ccc(-c2csc(C(C#N)=C3CCCC3)n2)cc1,-0.0695
22,Clc1cccc(OCCN2CCOCC2)c1,0.259
23,COc1cccc(C(=O)CN2C3=NCCCN3c3ccccc32)c1,0.00518

row,SMILES,z-score
1,CCc1ccc(C(=O)N/N=C/c2cccc3ccccc23)nc1,-0.0993
2,CCOC(=O)C1CCN(C(=S)Nc2cccc(C)c2)CC1,-0.145
3,O=c1cc(CN2CCN(Cc3ccccc3)CC2)c2cc(Cl)ccc2o1,0.272
4,COc1ccc(CNc2nc(NCc3ccc(OC)cc3)n(S(C)(=O)=O)n2)cc1,0.236
5,O=C1NCCCC1C(=O)Nc1cccc(C(F)(F)F)c1 (configuration not stated),-0.957
6,Brc1ccc(-c2nc(-c3ccncc3)no2)o1,0.0242
7,COc1ccc(CCNC(=O)CCS(=O)(=O)c2ccc(C)cc2)cc1OC,-0.0808
8,O=C(Cc1n[nH]c(=O)c2ccccc12)NCc1ccccn1,0.00671
9,O=S(=O)(Cc1cc(Cl)nc(-c2ccccc2)n1)c1ccccc1,-0.303
10,CCN1CCN(S(=O)(=O)c2cc(OC)ccc2OC)CC1,-0.242
11,CC(=O)NC(CCS(C)(=O)=O)C(=O)Nc1ccc(F)cc1Cl (configuration not stated),-0.275
12,CC(=O)Oc1ccc(C(=O)Cc2ccccn2)c(O)c1,-0.271
13,CCCN1CC23C=CC(O2)C(C(=O)O)C3C1=O (configuration not stated),0.384
14,CCOCCCn1c(C)nc2c(c1=O)c1nc3ccccc3nc1n2-c1ccc(C)cc1,-0.519
15,CCOc1ccccc1NC(=S)N(CCCN1CCOCC1)Cc1cn(C)c2ccccc12,-0.615
16,O=[N+]([O-])CC(=Nc1ccc(Cl)cc1)N/N=C\c1oc(O)c2ccccc12,-0.358
17,CCOC(=O)NC(NC(=O)OCC)C(=O)c1ccccc1,-0.227
18,O=C(NCCCN1CCCC1=O)C1CCN(S(=O)(=O)N2CCOCC2)CC1,0.414
19,COc1ccccc1/C=C(/CC(=O)NCc1ccc2c(c1)OCO2)c1nc2ccccc2s1,-0.251
20,c1cc2c3c(cccc3c1)C(N1CCCCC1)=N2,0.73
21,CC(C)SCc1nc2ccccc2[nH]1,-0.265
22,O=C(COn1nnc2ccccc21)NCC1CCCCC1,0.789
23,COc1ccc2c(Cl)c(-c3nnc(SCC(N)=O)n3C)sc2c1,-1.51

row,SMILES,z-score
1,CCOc1ccc(OCCCCN2CCCC2)cc1,0.507
2,NC(=O)[C@H]1CC2(CC(c3cccc(NC(=O)c4ccccc4)c3)=NO2)CN1C(=O)[C@H]1CCC(=O)N1 (some centres not stated),-0.202
3,O=C(O)CCS(=O)(=O)c1nc(-c2cccs2)cc(C(F)(F)F)n1,-0.41
4,Cc1ccccc1NC(=O)c1c(C)nc(SCC(=O)OCc2ccccc2)c(C#N)c1-c1ccc(F)cc1,-0.347
5,COc1ccc(OCCNS(=O)(=O)c2ccc3oc4ccccc4c3c2)cc1,-0.0238
6,CC(=O)N/C(=C\c1ccccc1)C(=O)OCC(=O)NC1CCCC1,-0.0254
7,COC(=O)c1cc(NC(=O)Cc2ccccc2[N+](=O)[O-])cc(C(=O)OC)c1,-0.153
8,O=[N+]([O-])c1ccc(C2Oc3ccccc3C3CC(c4ccccc4)=NN32)s1 (configuration not stated),-0.151
9,Cc1c(NC(=O)c2ccc(COc3ccc4ccccc4c3)o2)c(=O)n(-c2ccccc2)n1C,-0.735
10,C=C1c2ccc(C)cc2NC(=O)N1c1ccccc1,0.585
11,Cc1ccc(S(=O)(=O)c2nc(-c3ccc(F)cc3)oc2SCC(=O)NCC2CCCO2)cc1 (configuration not stated),-0.171
12,CC(C)(C)c1ccc(OCCON2C(=O)CCC2=O)c(Cl)c1,active: 3.08
13,O=C(NC1CCCC1)c1ccc(COCC(F)(F)F)o1,-0.113
14,CCOC(=O)C1C(=O)C=C(c2ccc(NS(C)(=O)=O)cc2)CC1c1ccco1 (configuration not stated),2.57
15,Cn1c2c(c(=O)n(C)c1=O)C(C(F)(F)F)(C(F)(F)F)N=C(CCC1CCCCC1)N2,-0.591
16,CCN1C(=O)CS/C1=C(\C#N)S(=O)(=O)c1ccccc1,-0.391
17,COc1ccc(NC(=O)c2ccc(N(C)S(C)(=O)=O)cc2)cc1OC,0.0779
18,S=c1[nH]nc(Cc2cccs2)n1-c1ccccc1,-0.644
19,CN1C(=O)/C(=C\c2cc(N=Nc3ccccc3)ccc2O)SC1=S,-0.728
20,Cc1ccc(C(=O)C(C)OC(=O)c2n[nH]c(=O)c3ccccc23)cc1 (configuration not stated),-0.179
